Measured values reported in PubChem BioAssay AID1240 (Sanford-Burnham Center for Chemical Genomics, 2008).
Screen size: about 50,000 compounds; about 800 (1.6%) showed an effect of 50% or more. Some of the results follow.

The molecules below were run against Bcl-2-like protein 10 (Homo sapiens) (UniProt Q9HD36) (assay: Phenotype converters, Bcl-B/TR3 peptide binding displacement, primary biochemical FP (AID 1240;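 note: 0% = Bcl-B with tracer peptide and DMSO and 100% = tracer peptide lacking Bcl-B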)). Conditions: GST-Bcl-B / FITC-TR3 peptide fluorescence polarization; stronger effect = higher value; compound at 3.75 mg/L.
Chain of UniProt Q9HD36 (Q9HD36 whole entry, looked up): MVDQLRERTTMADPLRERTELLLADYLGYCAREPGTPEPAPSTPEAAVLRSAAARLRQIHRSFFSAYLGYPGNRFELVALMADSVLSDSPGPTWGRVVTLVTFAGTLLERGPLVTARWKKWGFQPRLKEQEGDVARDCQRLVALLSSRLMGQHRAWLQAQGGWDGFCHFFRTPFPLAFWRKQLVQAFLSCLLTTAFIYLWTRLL
In the case of `COc1ccc(Cc2noc(-c3ccc(Br)cc3)n2)cc1`, the displacement is reported as 3.5%. `CC(C)(C)c1ccc(C(=O)NNC(=O)c2ccco2)cc1` was tested, and the displacement was -12.3%. `CN1CCN(Cn2c(O)c(N=NC(=O)c3ccncc3)c3ccccc32)CC1` was tested, and the displacement was -3.7%. `O=C(/C=C/c1ccccc1)Nc1ccccc1I` gave a displacement of 2.3%. `COc1cccc2cc(C(=O)Nc3ccc(I)cc3)c(=O)oc12` gave a displacement of 12.7%. For `CCN(CC)c1ccc(C(=O)NCCc2ccccc2)cc1`, the displacement was -0.8%. Work on `COc1ccc(C)cc1NC(=O)c1cccc(I)c1` yielded a displacement of 14.1%. For `CC1=NN(c2cccc(C(=O)O)c2)C(=O)/C1=C\c1cccc([N+](=O)[O-])c1`, the displacement was 6.2%. For `COc1ccc(/C=N/N=C(\N)c2nonc2N)c(OC)c1`, the displacement was 17.6%. Work on `COc1ccc(NC(=O)NCCOc2cc(C)ccc2C(C)C)cc1OC` yielded a displacement of 18.1%. For `O=C(NCCc1ccccc1)c1c(F)cccc1Cl`, the displacement was -9.1%. With `O=C(N=Nc1c(O)[nH]c2ccc(Br)cc12)c1ccc([N+](=O)[O-])cc1` the displacement was 6.8%. Molecule `COc1ccccc1/C=N/N=C1/NC(=O)C(Cc2ccc(C)cc2)S1` (stereo unspecified) has a displacement of -23.6%. `Cc1ccc(OCC(=O)Nc2ccc(C(=O)OCC(C)C)cc2)c(C)c1` showed a displacement of 3.1%. `O=C(CSc1nc2ccccc2s1)NCCO` was tested, and the displacement was 21.2%. Molecule `COc1ccc(/C=N/n2cnnc2SCc2ccccc2)cc1OC` has a displacement of 1%. `CCN1CCN(CC(O)COc2ccc(Cl)cc2C)CC1` (stereo unspecified) gave a displacement of 6.6%. `CCN1C(=O)/C(=C\c2ccccc2OS(=O)(=O)c2ccc(C)cc2)SC1=S` was tested, and the displacement was 13.4%. Work on `COc1ccc(-c2ccc(/C=C3\C(=O)NN(c4ccc(Cl)c(Cl)c4)C3=O)o2)c([N+](=O)[O-])c1` yielded a displacement of 0.8%. `COC(=O)c1ccccc1NC(=O)c1ccccc1C` gave a displacement of -6.5%. `O=C(Nc1ccc(-c2ccc([N+](=O)[O-])cc2)cc1)c1cccs1` was tested, and the displacement was 10.1%. `CC(C)N1C(=O)/C(=C\c2ccco2)SC1=S` showed a displacement of 1.7%. Work on `Cc1c(N2C(=O)S/C(=C\c3ccc(N(C)C)cc3)C2=O)c(=O)n(-c2ccccc2)n1C` yielded a displacement of 2.5%. Molecule `O=C(NC(=S)Nc1ccc2oc(-c3cccc4c(Br)cccc34)nc2c1)c1ccco1` has a displacement of 14.6%. Molecule `Cc1ccc(N2C(=O)/C(=C/c3cc(C)n(C)c3C)C(=O)NC2=S)c(C)c1` has a displacement of 48.3%. With `COc1ccc(-c2nc3c(n2O)CCC/C3=N\O)cc1OC` the displacement was 16.6%. `Cc1cccc(NC(=S)NNC(=O)c2cccc(C)c2)c1` was tested, and the displacement was -6.7%. `O=C(Nc1ccccc1)Nc1nnc(-c2ccc(Br)cc2)s1` showed a displacement of 9.1%. Molecule `CC1CCC(N2CCN(C(=O)c3ccco3)CC2)CC1` (stereo unspecified) has a displacement of 10.9%. Molecule `Cc1cccc(C)c1OCC(=O)N/N=C/c1ccc(O)c([N+](=O)[O-])c1` has a displacement of -7.4%. `CC1(C)CC(=O)C=C(Nc2ccc(F)c(F)c2)C1` was tested, and the displacement was -3%. With `Cc1cc(-c2ccc(C=C3C(=O)N(C)C(=O)N(C)C3=O)o2)cc([N+](=O)[O-])c1C` the displacement was 1.7%. For `O=C1NN(c2ccc(Cl)cc2)C(=O)/C1=C\c1ccc(-c2ccc(Cl)c(C(=O)O)c2)o1`, the displacement was 22.1%. In the case of `Cc1ccccc1OCC(=O)Nc1cc([N+](=O)[O-])ccc1Cl`, the displacement is reported as -4.5%. With `O=C1NC(=S)S/C1=C\c1ccccc1OS(=O)(=O)c1ccc([N+](=O)[O-])cc1` the displacement was 3.9%. For `O=S(=O)(NC1c2ccccc2Oc2ccccc21)c1ccc(Cl)cc1`, the displacement was 1%. For `CN(C)C1(c2cccnc2)CS(=O)(=O)C1`, the displacement was -0.1%. Work on `CS(=O)(=O)N1CCN(c2ccc([N+](=O)[O-])c(N3CCCCC3)c2)CC1` yielded a displacement of 4.5%. In the case of `COc1ccc(C(=O)/C=C/c2ccc3c(c2)OCO3)cc1`, the displacement is reported as -4.6%. With `Brc1ccc(Sc2nc3ccccc3[nH]2)cc1` the displacement was -3.2%. In the case of `O=C1CC2c3ccccc3C1C1C(=O)N(CCO)C(=O)C21` (stereo unspecified), the displacement is reported as -1.6%. With `CN=C(Nc1ccc(Cl)c(Cl)c1)SC1CC(=O)N(c2cccc(OC)c2)C1=O` (stereo unspecified) the displacement was -3.9%. Molecule `CC(C)(C)C(=O)Nc1sc2c(c1C(=O)Nc1ccccc1)CCCCC2` has a displacement of -8.7%. Molecule `O=c1c2ccccc2nc(/C=C/c2cccc([N+](=O)[O-])c2)n1Cc1ccccc1` has a displacement of 12.9%. In the case of `Cc1ccnc(NC(=O)CCCOc2ccc(Cl)cc2Cl)c1`, the displacement is reported as -11.3%. In the case of `COc1cc(C(=O)N/N=C/c2ccsc2C)cc(OC)c1OC`, the displacement is reported as -20.1%. `COc1ccccc1-c1nc(-c2cccc([N+](=O)[O-])c2)no1` was tested, and the displacement was 6.4%. With `COC(=O)c1c(C)oc2cc(Br)c(OCc3ccc(F)cc3)cc12` the displacement was 7.3%. Molecule `COc1ccc(OC)c(C2=C/C(=C/c3cccc(OC)c3O)C(=O)O2)c1` has a displacement of 13.5%. Molecule `COc1ccc(-n2c(C)nc(=O)c(-c3ccccc3)c2C)cc1` has a displacement of 1.6%. `NC(N)=NS(=O)(=O)c1ccc(NS(=O)(=O)c2ccccc2)cc1` was tested, and the displacement was 6.9%. `Cc1ccc(NC(=O)C2CCCCC2C(=O)O)cc1Cl` (stereo unspecified) gave a displacement of -12.9%. Molecule `COc1ccc(OCCNC(=O)c2ccc(I)cc2)cc1` has a displacement of -18.5%. `Cc1ccccc1-n1c(O)c(C=Nc2ccc(Cl)cc2)c(=O)[nH]c1=O` was tested, and the displacement was 2.6%. With `N#Cc1cc2c(N)c(C(N)=O)sc2nc1N` the displacement was 8.9%. With `COc1ccc(C2/C(=C(\O)c3ccc(Cl)cc3)C(=O)C(=O)N2c2cccnc2)cc1OC` (stereo unspecified) the displacement was -7.9%.
